Experimental data published in the supplement of paper PMC9446081.
Hit rate of the full screen: of about 39,000 compounds, about 220 (0.56%) showed activity. The list shows a part of the results.

tested on: Escherichia coli K-12 BW25113; assay: relative growth (OD600 normalised to plate interquartile mean) (fraction); higher = less growth inhibition, active = 0.2 or less; settings: 50 µM; LB; incubation time: overnight (16-24 h)
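Note: static incubation at 37 °C against the wild-type strain, values averaged over two biological replicates.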

Q: How did the relative growth turn out when `C[C@@H]1CN([C@@H](C)CO)C(=O)c2cc(NC(=O)CCN3CCOCC3)ccc2O[C@@H]1CN(C)CC1CC1` was run?
A: inactive: 1

Q: How did the relative growth turn out when `C[C@@H]1CN([C@H](C)CO)C(=O)c2cc(NS(C)(=O)=O)ccc2O[C@@H](C)CCCCO[C@H]1CN(C)CC1CC1` was run?
A: inactive: 0.993

Q: How did the relative growth turn out when `Cc1ccc(S(=O)(=O)Nc2ccc3c(c2)CC(=O)N([C@@H](C)CO)C[C@H](C)[C@@H](CN(C)Cc2ccncc2)O3)cc1` was run?
A: inactive: 1.01

Q: `OC[C@H]1NC[C@H](O)[C@@H](O)[C@@H]1O` was tested. Which relative growth did it give?
A: inactive: 1.02

Q: How did the relative growth turn out when `C[C@H](CO)N1C[C@H](C)[C@@H](CN(C)Cc2ccc(C(F)(F)F)cc2)Oc2c(NC(=O)c3nc4ccccc4s3)cccc2C1=O` was run?
A: inactive: 0.976

Q: With `COc1cccc(NC(=O)N2C[C@H](O)COC[C@@H]3O[C@@H](CC(=O)NC4Cc5ccccc5C4)CC[C@H]32)c1` as the compound, how does the relative growth read?
A: inactive: 1.02

Q: With `C[C@H](CO)N1C[C@H](C)[C@@H](CN(C)C(=O)Nc2cccc3ccccc23)Oc2ccc(NC(=O)Cc3cn(C)c4ccccc34)cc2C1=O` as the compound, how does the relative growth read?
A: inactive: 1.02

Q: Which relative growth does the source give for `Cc1ccc(S(=O)(=O)Nc2ccc3c(c2)CC(=O)N([C@@H](C)CO)C[C@H](C)[C@H](CN(C)Cc2ccc(-c4ccccc4)cc2)O3)cc1` here?
A: inactive: 1.01

Q: With `COc1ccc(C2=NS(=O)(=O)N(C)C(C(=O)N3CCC(C(N)=O)CC3)=C2)cc1` as the compound, how does the relative growth read?
A: inactive: 1

Q: For `C[C@H](CO)N1C[C@H](C)[C@@H](CN(C)S(=O)(=O)c2cn(C)cn2)Oc2ccc(NC(=O)CCCCCC(=O)Nc3ccccc3N)cc2CC1=O`, which relative growth is on record?
A: inactive: 0.993

Q: For `NC/C=C\C(=O)O`, which relative growth is on record?
A: inactive: 0.977

Q: `COc1ccc(NC(=O)Nc2ccc3c(c2)C(=O)N([C@@H](C)CO)C[C@H](C)[C@@H](CN(C)S(=O)(=O)c2ccc(OC)cc2)OCCCC[C@@H](C)O3)cc1` was tested. Which relative growth did it give?
A: inactive: 1.04

Q: Which relative growth does the source give for `CC(=O)N1[C@@H]2Cn3c(cccc3=O)[C@H]1[C@@H](C(=O)N1CCc3ccccc3C1)[C@@H]2CO` here?
A: inactive: 1

Q: With `C[C@@H]1CN([C@H](C)CO)C(=O)c2cccc(NC(=O)c3ccncc3)c2O[C@@H]1CN(C)Cc1ccc2c(c1)OCO2` as the compound, how does the relative growth read?
A: inactive: 0.974

Q: How did the relative growth turn out when `C[C@H](CO)N1C[C@H](C)[C@H](CN(C)S(=O)(=O)c2ccc(F)cc2)Oc2c(NC(=O)Nc3cccc4ccccc34)cccc2C1=O` was run?
A: inactive: 1

Q: For `C[C@@H]1CN([C@@H](C)CO)C(=O)c2cc(C#CCc3ccccc3)cnc2O[C@@H]1CN(C)C(=O)C1CCOCC1`, which relative growth is on record?
A: inactive: 0.97

Q: For `CCCCC[C@@H](O)[C@@H]1C(=O)O[C@H](C)[C@H](O)/C=C/C=C/C=C/C=C/C=C(\C)[C@H](O)C[C@H](O)C[C@H](O)C[C@H](O)C[C@H](O)C[C@H](O)C[C@@H]1O`, which relative growth is on record?
A: inactive: 0.99

Q: With `Cc1noc(C)c1NC(=O)Nc1ccc2c(c1)C(=O)N([C@@H](C)CO)C[C@@H](C)[C@@H](CN(C)S(=O)(=O)c1cccs1)OCCCC[C@@H](C)O2` as the compound, how does the relative growth read?
A: inactive: 1.01

Q: How did the relative growth turn out when `CCCCC1=NC2(CCCC2)C(=O)N1Cc1ccc(-c2ccccc2S(=O)(=O)Nc2noc(C)c2C)c(COCC)c1` was run?
A: inactive: 1

Q: With `CC12CCC3c4ccc(O)cc4CCC3C1CCC2=O` (stereo not drawn) as the compound, how does the relative growth read?
A: inactive: 1.11

Q: How did the relative growth turn out when `Cn1cnc(S(=O)(=O)N2C[C@@H](O)COC[C@H]3O[C@@H](CC(=O)N4CCN(c5ccccc5)CC4)CC[C@@H]32)c1` was run?
A: inactive: 1.02

Q: `COc1ccc(CN(C)C[C@@H]2Oc3c(NS(=O)(=O)c4cn(C)cn4)cccc3C(=O)N([C@H](C)CO)C[C@@H]2C)cc1` was tested. Which relative growth did it give?
A: inactive: 0.994

Q: How did the relative growth turn out when `CN1CCN(C(=O)C[C@H]2CC[C@H](NC(=O)Cc3ccccn3)[C@@H](CO)O2)CC1` was run?
A: inactive: 1.01

Q: `CO[C@@H]1CN(C)C(=O)c2cc(NS(C)(=O)=O)ccc2OC[C@@H](C)N(C(=O)C2CCCCC2)C[C@@H]1C` was tested. Which relative growth did it give?
A: inactive: 0.983

Q: `COc1ccc(S(=O)(=O)N(C)C[C@@H]2Oc3ccc(NS(=O)(=O)c4ccccc4)cc3CC(=O)N([C@@H](C)CO)C[C@H]2C)cc1` was tested. Which relative growth did it give?
A: inactive: 1.01

Q: With `C[C@@H]1CN([C@H](C)CO)C(=O)c2cc(NC(=O)Nc3ccc4c(c3)OCO4)ccc2O[C@@H](C)CCCCO[C@H]1CN(C)Cc1ccccc1` as the compound, how does the relative growth read?
A: inactive: 1.03

Q: `C[C@@H]1CCCCO[C@@H](CN(C)C(=O)NC2CCCCC2)[C@H](C)CN([C@@H](C)CO)C(=O)c2cc(NC(=O)NC3CCCCC3)ccc2O1` was tested. Which relative growth did it give?
A: inactive: 1.01

Q: With `COCC(=O)Nc1ccc2c(c1)[C@H]1C[C@H](CC(=O)N3CCOCC3)O[C@H](CO)[C@H]1O2` as the compound, how does the relative growth read?
A: inactive: 0.995

Q: Which relative growth does the source give for `C[C@@H]1CCCCO[C@@H](CN(C)S(=O)(=O)c2cccs2)[C@@H](C)CN([C@H](C)CO)C(=O)c2cc(NC(=O)CCC(F)(F)F)ccc2O1` here?
A: inactive: 0.962

Q: `C=CC[C@H](CC(=O)NCCO)C(=O)NC[C@H](OC(=O)[C@@H](CC=C)CC(=O)OC(C)(C)C)c1ccccc1` was tested. Which relative growth did it give?
A: inactive: 1.01

Q: Which relative growth does the source give for `COc1ccc(S(=O)(=O)N(C)C[C@@H]2OCCCC[C@H](C)Oc3ccc(NC(=O)Nc4ccc(F)cc4)cc3C(=O)N([C@H](C)CO)C[C@@H]2C)cc1` here?
A: inactive: 1.05

Q: Which relative growth does the source give for `O=C(C[C@@H]1C[C@@H]2c3cc(NS(=O)(=O)c4ccc(F)cc4)ccc3O[C@@H]2[C@H](CO)O1)NC1CCCC1` here?
A: inactive: 0.992

Q: For `COc1ccc(NC(=O)Nc2ccc3c(c2)C(=O)N([C@H](C)CO)C[C@@H](C)[C@@H](CN(C)CC2CCCCC2)OCCCC[C@H](C)O3)cc1`, which relative growth is on record?
A: inactive: 1.06

Q: With `C[C@@H]1CN([C@H](C)CO)S(=O)(=O)c2ccc(C#Cc3ccncc3)cc2O[C@@H]1CN(C)C(=O)c1ccncc1` as the compound, how does the relative growth read?
A: inactive: 0.958

Q: With `Cc1nnsc1-c1onc(C)c1C(N)=O` as the compound, how does the relative growth read?
A: inactive: 0.866

Q: For `O=C1[C@@H]2[C@H](C(=O)N1c1ccccc1)C13COC[C@H](c4ccccc4)N1C(=O)C2(C(=O)NCc1ccccc1)O3` (stereo partly drawn), which relative growth is on record?
A: inactive: 1.02

Q: How did the relative growth turn out when `C[C@H](CO)N1C[C@H](C)[C@H](CN(C)C(=O)Nc2ccc(F)cc2)Oc2ncc(-c3cc4ccccc4o3)cc2C1=O` was run?
A: inactive: 0.977

Q: Which relative growth does the source give for `COc1ccc(CN(C)C[C@H]2OCCCC[C@@H](C)Oc3ccc(NC(=O)Nc4ccc(OC)cc4)cc3C(=O)N([C@H](C)CO)C[C@@H]2C)cc1` here?
A: inactive: 0.938
